# Source: article PMC7819943, “Rice protein-binding microarrays: a tool to detect cis-acting elements near promoter regions in rice”
# Some of the results follow.
# Biological target: T1, OsWOX13 (Oryza sativa, UniProt Q5QMM3 1-267)
# T1 sequence: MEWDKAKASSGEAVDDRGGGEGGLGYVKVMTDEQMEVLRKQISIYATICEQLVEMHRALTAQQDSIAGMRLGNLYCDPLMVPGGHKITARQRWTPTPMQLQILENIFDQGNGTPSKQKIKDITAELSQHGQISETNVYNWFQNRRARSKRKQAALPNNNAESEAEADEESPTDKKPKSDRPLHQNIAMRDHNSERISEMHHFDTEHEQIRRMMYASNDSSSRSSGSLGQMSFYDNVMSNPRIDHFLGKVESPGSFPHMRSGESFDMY
# Test: protein-binding microarray (RPBM); PBS, 2% BSA, 51.3 ng/ul salmon testes DNA, 50 uM zinc acetate, 200 nM TF, 25 C, 1 h; high values mean tight binding
# Details: protein: recombinant; tags: N-terminal polyhistidine and DsRed monomer fusion (pET32a); label: CyDye5-dUTP incorporated in the synthesized complementary strand; 3' TTTTT single-stranded linker to array surface; dsDNA, one strand shown
# Summary of the method: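 Binding signal is reported as fluorescence intensity per feature (arbitrary units) from an Axon 4000B scanner. Incubation used 200 nM of each Ni–NTA-purified, N-terminally polyhistidine- and DsRed-fused transcription factor from E. coli BL21-CodonPlus on a double-stranded custom Agilent array for 1 h at 25 °C, with 50 µM zinc acetate in the buffer, followed by washing.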
row,Sequence,binding signal
1,TATAATTGATCTTTGTAGTTATTTTGTTGCATACATAAGACGGAGTCACCTAGTGCAG,29100 fluorescence intensity (a.u.)
2,CTTAATTATGCTCAAAAGATTCGTCTTATGGTTTCCAAGCCGGAGTCACCTAGTGCAG,32500 fluorescence intensity (a.u.)
3,ATTTTGATTAAATGGTGATCAGCCAAAGCATTTGCCATCCCGGAGTCACCTAGTGCAG,39300 fluorescence intensity (a.u.)
4,TTTGATGAAAAGTGATGCGTAGCACTATTTATTTTCGGAGCGGAGTCACCTAGTGCAG,3920 fluorescence intensity (a.u.)
5,TATTAAACTTTAATTAAATTAGAGTGACTTCTTCAATAAACGGAGTCACCTAGTGCAG,8700 fluorescence intensity (a.u.)
6,AATAAATTGTGACAGCTGTGGGATTTGAACCCACGCCCTTCGGAGTCACCTAGTGCAG,25700 fluorescence intensity (a.u.)
7,AAGAGATTGGAATCGGGCGTACCGGAGAACTTTGGAGATGCGGAGTCACCTAGTGCAG,12100 fluorescence intensity (a.u.)
8,TTGAAATCAATTTTGATTATTAGCTGAGACTTATTTGACTCGGAGTCACCTAGTGCAG,27200 fluorescence intensity (a.u.)
9,GTTAATGTACTAAATTACATTCACATAACAAGGTTATGTACGGAGTCACCTAGTGCAG,24300 fluorescence intensity (a.u.)
10,GCAAATAGACATCTTTAGTGGTTAGCGAAGCGGTTTGTACCGGAGTCACCTAGTGCAG,8850 fluorescence intensity (a.u.)
11,TGCAAGATTGAAGACTAGTTCAATAATGAGGCTAGTCCTTCGGAGTCACCTAGTGCAG,33900 fluorescence intensity (a.u.)
12,CACGGATTATTTTGAGCAATTACCGCTCTAATCCGGGGCGCGGAGTCACCTAGTGCAG,3600 fluorescence intensity (a.u.)
13,GCTGATTAGCCCTAGGCAACGCTCGCTAACACGCCACCACCGGAGTCACCTAGTGCAG,30900 fluorescence intensity (a.u.)
14,AAAGATTGGAACTGATTAATGACATGTTTGAATGGTTAGGCGGAGTCACCTAGTGCAG,51500 fluorescence intensity (a.u.)
15,GATAAACACTAATTGCAGCAACTGGTAGGCATCAGAACACCGGAGTCACCTAGTGCAG,13100 fluorescence intensity (a.u.)
16,TATAAATTGACTGATAAGCAACGGCCATTTCAGCTCAGATCGGAGTCACCTAGTGCAG,45600 fluorescence intensity (a.u.)
17,TGATATATCGAATAGATTGATATCAGTATTGTTGAAGCTACGGAGTCACCTAGTGCAG,12500 fluorescence intensity (a.u.)
18,GGCTAAACATGAAAACTGATTTATGGATAGTGGGTTTTGACGGAGTCACCTAGTGCAG,17500 fluorescence intensity (a.u.)
19,TAAATTAATTTATATTTTATAATAAACCGTTTTGGTTTAACGGAGTCACCTAGTGCAG,40000 fluorescence intensity (a.u.)
20,AGTTATCTGATTTGCCCTTGTATTGGTTTGTATCACGTCGCGGAGTCACCTAGTGCAG,8210 fluorescence intensity (a.u.)
21,ACGTCTCTAGTGCCAATCATTTTATGTAGAGTGGAGCCACCGGAGTCACCTAGTGCAG,3750 fluorescence intensity (a.u.)
22,CTCTTAATTATCAAGTAATTACAACTAACAGTATAAGCTACGGAGTCACCTAGTGCAG,44400 fluorescence intensity (a.u.)
23,ATGCTGTCATTTCTCATTTAGTTACTTTCAACTAATACTACGGAGTCACCTAGTGCAG,3670 fluorescence intensity (a.u.)
